The source of these data is publication PMC13083723 (Patterns, 2026).

Structures are written as SMILES. Screen size: about 5,400 compounds; about 190 (3.5%) showed an effect of 50% or more. This is one part of the list.

The assay concerns Vero-E6. As to the kind of experiment: primary screen, phospholipidosis by LipidTOX staining; higher = more effect of the substance. Particulars: 10 µM. In a few lines: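 Single-concentration screen at 10 μM, with DMSO 0.1 v/v % and amiodarone 10 μM as controls. Read-out is LipidTOX Red phospholipid staining, which tolerates aldehyde fixation, in Vero-E6 cells.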
Turning to `CC(C)(CO)CCCCCCC(C)(C)CO`, the result_ITMP was -4.7%.

On to `CCCN(CCC)C(=O)C(CCC(=O)OCCCN1CCN(CCOC(=O)Cc2c(C)n(C(=O)c3ccc(Cl)cc3)c3ccc(OC)cc23)CC1)NC(=O)c1ccccc1` (centres unmarked), for which the result_ITMP was -0.73%. As for `CC(C)[C@@H]1C(=O)N(S(C)(=O)=O)[C@@H]2CCN(C(=O)/C=C/CN3CCCCC3)[C@H]21`, the result_ITMP stood at 0.42%. As to `Cc1ccnc2c1CCCC2C(N)=S` (centres unmarked), the result_ITMP is -2.36%. Regarding `CCOC(=O)C1=C[C@]2(CC)CCCN3CCc4c(n1c1ccccc41)[C@@H]32`, the result_ITMP is given as -9.49%. Take `OCCCCO`: the result_ITMP is -3.35%. With `Cn1c2c(c3ccccc31)CCNCC2` the figure was 20.5%; with `C[C@H](N)Cc1c[nH]cn1`, -1.54%.

As to `CC(C)c1cc(C(=O)N2Cc3ccc(CN4CCN(C)CC4)cc3C2)c(O)cc1O`, the result_ITMP was determined as 8.21%. For the compound `O=S(=O)(N[C@H](CO)C(C(F)(F)F)C(F)(F)F)c1ccc(Cl)s1`, the result_ITMP is reported as -3.74%. With `CN1CCC(COc2cnc(-c3cccc(Cn4nc(-c5cccc(C#N)c5)ccc4=O)c3)nc2)CC1`, the result_ITMP was determined as 2.15%.

As for `COC[C@@H](NC(C)=O)C(=O)NCc1ccccc1`, the result_ITMP is on record as -4.4%. On to `O=C(O)CCn1c2c(c3ccccc31)C[C@H](NS(=O)(=O)c1ccc(F)cc1)CC2`, for which the result_ITMP was -1.07%. Take `COc1cnc(NS(=O)(=O)c2ccc(N)cc2)nc1`: the result_ITMP was -2.47%.

For `O=C(O)CCC(=O)Nc1ccc(S(=O)(=O)Nc2nccs2)cc1`, the result_ITMP was -3.42%. As for `O=C1N=C(NCc2cccs2)S/C1=C\c1ccc2ncccc2c1`, the result_ITMP was -2.36%. With `Cc1cccc(CN2CCN(C(c3ccccc3)c3ccc(Cl)cc3)CC2)c1` (centres unmarked) the figure was 8.69%. As for `Cn1cnnc1Sc1c([N+](=O)[O-])ncn1C`, the result_ITMP is recorded as -0.51%.

Turning to `CNCCC(Oc1ccccc1OC)c1ccccc1` (centres unmarked), the result_ITMP turned out to be 13%. As to `O=NN(CCCl)C(=O)NC1CCCCC1`, the result_ITMP is -5.33%. With `CCCCCCCCc1ccc(CCC(N)(CO)CO)cc1` the figure was 46.4%; with `CNc1nc(NCc2ccc(NS(C)(=O)=O)cc2Cl)cc(-c2ccccn2)n1`, 4.77%; with `O=C1C(c2ccccn2)=[N+]([O-])c2ccccc21`, 1.02%.

Regarding `C[C@@H](O)[C@H]1C(=O)N2C(C(=O)[O-])=C(S[C@@H]3CN[C@H](C(=O)Nc4cccc(C(=O)O)c4)C3)[C@H](C)[C@H]12`, the result_ITMP is on record as -0.24%. For the compound `CCCCCCCC/C=C\CCCCCCCC(=O)NCCc1ccc(O)c(O)c1`, the result_ITMP was determined as 0.61%. Consider `O=S(=O)(/N=C/c1c(O)ccc2ccccc12)c1cccs1`, for which the result_ITMP was -1.79%.

For the compound `O=C1OC2(c3ccc(O)cc3Oc3cc(O)ccc32)c2ccccc21`, the result_ITMP is given as 2.64%.

With `CC(=O)N(CC(C)C(=O)O)c1c(I)cc(I)c(N)c1I` (centres unmarked), the result_ITMP is given as -10.2%. As to `COc1ccc(OCC2c3cc(OC)c(OC)cc3CCN2C(=O)c2cccc(Cl)c2)cc1` (centres unmarked), the result_ITMP is -4.92%. For the compound `COc1cc(C(=O)NC2CCCNC2)cc(OC)c1OC` (centres unmarked), the result_ITMP is on record as -4.69%.

For the compound `CC(C)(S)C(N)C(=O)O` (centres unmarked), the result_ITMP is listed as -0.26%.

For the compound `C[C@@H]1NC(C)(C)CO[C@@]1(O)c1cccc(Cl)c1`, the result_ITMP is on record as -1.66%. In the case of `c1ccc(N2CCN(Cc3nc4ccccc4[nH]3)CC2)nc1`, the result_ITMP is listed as -2.24%. Consider `COC(=O)c1c(-c2cc(OC)c(OC)c(OC)c2)c2ccnc(OCc3ncccn3)c2c(=O)n1Cc1ccnc(C)c1`, for which the result_ITMP is reported as -1.68%.

Turning to `CCn1c(=O)/c(=C2\Sc3ccccc3N2C)s/c1=C/c1cccc[n+]1CC`, the result_ITMP is recorded as -7.97%. For the compound `c1cnc2c([O][Ga]([O]c3cccc4cccnc34)[O]c3cccc4cccnc34)cccc2c1`, the result_ITMP was 5.3%. Take `CN[C@@H]1[C@H](OC2[C@H](O[C@H]3[C@H](O)[C@@H](O)[C@H](NC(=N)N)[C@@H](O)[C@@H]3NC(=N)N)O[C@@H](C)[C@]2(O)C=O)O[C@@H](CO)[C@H](O)[C@H]1O` (some centres unmarked): the result_ITMP is -1.71%. For the compound `COC(=O)c1cc(OC)c2c(c1-c1c(CO)cc(OC)c3c1OCO3)OCO2`, the result_ITMP is -7.12%. In the case of `N#Cc1cc2[nH]c(=O)c(=O)[nH]c2cc1[N+](=O)[O-]`, the result_ITMP was -1.93%.

For the compound `CNC(=O)Nc1ccc(-c2nc(N3CC4CCC(C3)O4)c3cnn(C4CCC5(CC4)OCCO5)c3n2)cc1`, the result_ITMP amounted to 2.27%.

With `CCOC(=O)c1ncc2[nH]c3cccc(OC(C)C)c3c2c1C`, the result_ITMP is -2.37%.

As for `CCCCC/N=c1/ccn(Cc2ccccc2)c2ccccc12`, the result_ITMP was -2.27%. As to `COC1=C2C[C@@H](C)C[C@H](OC)[C@H](O)[C@@H](C)/C=C(\C)[C@H](OC(N)=O)[C@@H](OC)/C=C\C=C(/C)C(=O)NC(=CC1=O)C2=O`, the result_ITMP is reported as -2.67%. As for `COc1ccc(C(=O)c2ccc(C)cc2)c(O)c1`, the result_ITMP is -5.75%. Turning to `CCCCCCCCCCCCCCCCCCCCCCCCCCCCO`, the result_ITMP stood at 5.71%. Regarding `CCCCNc1ncc2c(-c3ccc(CN4CCN(C)CC4)cc3)cn([C@H]3CC[C@H](O)CC3)c2n1`, the result_ITMP was found to be 38.5%.

For `O=C([O-])C[C@H](O)C[C@H](O)CCc1c(C2CC2)nc2ccccc2c1-c1ccc(F)cc1`, the result_ITMP is recorded as -2.97%. As to `NC(=O)NC(=O)Cc1ccccc1`, the result_ITMP was -2.14%. With `O=C(O)CN1CCN(CC(=O)O)CCN(CC(=O)O)CCN(CC(=O)O)CC1` the figure was 1.35%; with `c1ccc2[nH]c(-c3cscn3)nc2c1`, -2.69%; with `Cn1cc(-c2ccc3nnc(C(F)(F)c4ccc5ncccc5c4)n3n2)cn1`, -3.45%.

Take `CNC(=O)O[C@H]1COc2ccc(N3CCN(C4COC4)CC3)cc2[C@@H]1NC(=O)c1ccc(F)cc1`: the result_ITMP is -1.74%. `CCC(CC)CC1(C(=O)Nc2ccccc2SC(=O)C(C)C)CCCCC1`: the result_ITMP came to 2.05%. With `CC(C)(C)NC(=O)N[C@H](C(=O)N1C[C@H]2[C@@H]([C@H]1C(=O)NC(CC1CCC1)C(=O)C(N)=O)C2(C)C)C(C)(C)C` (some centres unmarked) the figure was -2.27%; with `COc1ccc(CNC(=O)c2cc(-c3cncc(C)c3)ncc2-c2nccs2)nc1OC`, -4.6%. With `Cn1c(=O)cc(N2CCC[C@@H](N)C2)n(Cc2ccccc2C#N)c1=O` the figure was -11.2%. The same measure for `CCOc1ccc(-c2nc(-c3cccc4c3CCC4NCCO)no2)cc1OCC` (centres unmarked): 108%. In the case of `CCCCCCCN(CC)CCCC(O)c1ccc(NS(C)(=O)=O)cc1` (centres unmarked), the result_ITMP is recorded as -0.39%.

On to `C=C1C[C@]23C[C@@]1(O)CC[C@H]2[C@@]12C=C[C@H](O)[C@@](C)(C(=O)O1)[C@H]2[C@@H]3C(=O)O`, for which the result_ITMP is recorded as -2.41%.
